31 molecules from publication PMC9911399, “Two distinct binding modes provide the RNA-binding protein RbFox with extraordinary sequence specificity” can be followed below.

Residue numbers refer to the chain shown, from its start. Some of the results follow.

To fix the notation:
T1: RBFOX1 RRM RbFoxmut (Fox-RRM*) (Homo sapiens, UniProt Q9NWB1 109-208, R118D;E147R;N151S;E152T)
T1 sequence: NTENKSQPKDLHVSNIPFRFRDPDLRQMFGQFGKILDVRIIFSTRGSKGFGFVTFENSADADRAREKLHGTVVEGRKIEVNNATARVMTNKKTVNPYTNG

B1: AUUAUUA (DNA:RNA)
RNA: GGGAGACCGGAAUUCAGAUUGUCCAUUAUUAUUAAAUCCCGUCGUAGCCACCA
DNA 1: CAATCTGAATTCCGGTCTCCC
DNA 2: TGGTGGCTACGACGGGATT
B2: UCGGUCG (DNA:RNA)
RNA: B1 RNA with A25U, U26C, U27G, A28G, U30C, A31G
DNA 1: CAATCTGAATTCCGGTCTCCC
DNA 2: TGGTGGCTACGACGGGATT
B3: CCACAUG (DNA:RNA)
RNA: B1 RNA with A25C, U26C, U27A, A28C, U29A, A31G
DNA 1: CAATCTGAATTCCGGTCTCCC
DNA 2: TGGTGGCTACGACGGGATT
B4: GCUACAG (DNA:RNA)
RNA: B1 RNA with A25G, U26C, U29C, U30A, A31G
DNA 1: CAATCTGAATTCCGGTCTCCC
DNA 2: TGGTGGCTACGACGGGATT
B5: UUCUUAC (DNA:RNA)
RNA: B1 RNA with A25U, U27C, A28U, U30A, A31C
DNA 1: CAATCTGAATTCCGGTCTCCC
DNA 2: TGGTGGCTACGACGGGATT
B6: UUCCCAG (DNA:RNA)
RNA: B1 RNA with A25U, U27C, A28C, U29C, U30A, A31G
DNA 1: CAATCTGAATTCCGGTCTCCC
DNA 2: TGGTGGCTACGACGGGATT
B7: GGGUACG (DNA:RNA)
RNA: GGGAGACCGGAAUUCAGAUUGUCCGGGUACGUUAAAUCCCGUCGUAGCCACCA
DNA 1: CAATCTGAATTCCGGTCTCCC
DNA 2: TGGTGGCTACGACGGGATT
B8: UCUUCAC (DNA:RNA)
RNA: B1 RNA with A25U, U26C, A28U, U29C, U30A, A31C
DNA 1: CAATCTGAATTCCGGTCTCCC
DNA 2: TGGTGGCTACGACGGGATT
B9: AGAUGUG (DNA:RNA)
RNA: B7 RNA with G25A, G27A, A29G, C30U
DNA 1: CAATCTGAATTCCGGTCTCCC
DNA 2: TGGTGGCTACGACGGGATT
B10: AUAAUGA (DNA:RNA)
RNA: B1 RNA with U27A, U30G
DNA 1: CAATCTGAATTCCGGTCTCCC
DNA 2: TGGTGGCTACGACGGGATT
B11: CUAACAG (DNA:RNA)
RNA: B1 RNA with A25C, U27A, U29C, U30A, A31G
DNA 1: CAATCTGAATTCCGGTCTCCC
DNA 2: TGGTGGCTACGACGGGATT
B12: CUGCCUA (DNA:RNA)
RNA: B1 RNA with A25C, U27G, A28C, U29C
DNA 1: CAATCTGAATTCCGGTCTCCC
DNA 2: TGGTGGCTACGACGGGATT
B13: CUGGUUG (DNA:RNA)
RNA: B1 RNA with A25C, U27G, A28G, A31G
DNA 1: CAATCTGAATTCCGGTCTCCC
DNA 2: TGGTGGCTACGACGGGATT
B14: ACUAUGA (DNA:RNA)
RNA: B1 RNA with U26C, U30G
DNA 1: CAATCTGAATTCCGGTCTCCC
DNA 2: TGGTGGCTACGACGGGATT
B15: UUCAUUC (DNA:RNA)
RNA: B1 RNA with A25U, U27C, A31C
DNA 1: CAATCTGAATTCCGGTCTCCC
DNA 2: TGGTGGCTACGACGGGATT
B16: AACUGCA (DNA:RNA)
RNA: B1 RNA with U26A, U27C, A28U, U29G, U30C
DNA 1: CAATCTGAATTCCGGTCTCCC
DNA 2: TGGTGGCTACGACGGGATT
B17: GAACAUA (DNA:RNA)
RNA: B1 RNA with A25G, U26A, U27A, A28C, U29A
DNA 1: CAATCTGAATTCCGGTCTCCC
DNA 2: TGGTGGCTACGACGGGATT
B18: UGUAGUA (DNA:RNA)
RNA: B1 RNA with A25U, U26G, U29G
DNA 1: CAATCTGAATTCCGGTCTCCC
DNA 2: TGGTGGCTACGACGGGATT
B19: AGUCAAA (DNA:RNA)
RNA: B1 RNA with U26G, A28C, U29A, U30A
DNA 1: CAATCTGAATTCCGGTCTCCC
DNA 2: TGGTGGCTACGACGGGATT
B20: UUAUUCC (DNA:RNA)
RNA: B1 RNA with A25U, U27A, A28U, U30C, A31C
DNA 1: CAATCTGAATTCCGGTCTCCC
DNA 2: TGGTGGCTACGACGGGATT
B21: AGGGUUU (DNA:RNA)
RNA: B1 RNA with U26G, U27G, A28G, A31U
DNA 1: CAATCTGAATTCCGGTCTCCC
DNA 2: TGGTGGCTACGACGGGATT
B22: AGGUCGG (DNA:RNA)
RNA: B7 RNA with G25A, A29C, C30G
DNA 1: CAATCTGAATTCCGGTCTCCC
DNA 2: TGGTGGCTACGACGGGATT
B23: AGGUAAA (DNA:RNA)
RNA: B7 RNA with G25A, C30A, G31A
DNA 1: CAATCTGAATTCCGGTCTCCC
DNA 2: TGGTGGCTACGACGGGATT
B24: CUGUAGC (DNA:RNA)
RNA: B7 RNA with G25C, G26U, C30G, G31C
DNA 1: CAATCTGAATTCCGGTCTCCC
DNA 2: TGGTGGCTACGACGGGATT
B25: GACGUUU (DNA:RNA)
RNA: B1 RNA with A25G, U26A, U27C, A28G, A31U
DNA 1: CAATCTGAATTCCGGTCTCCC
DNA 2: TGGTGGCTACGACGGGATT
B26: UCGAAGA (DNA:RNA)
RNA: B1 RNA with A25U, U26C, U27G, U29A, U30G
DNA 1: CAATCTGAATTCCGGTCTCCC
DNA 2: TGGTGGCTACGACGGGATT
B27: CACGCGG (DNA:RNA)
RNA: B7 RNA with G25C, G26A, G27C, U28G, A29C, C30G
DNA 1: CAATCTGAATTCCGGTCTCCC
DNA 2: TGGTGGCTACGACGGGATT
B28: CAGUCCG (DNA:RNA)
RNA: B7 RNA with G25C, G26A, A29C
DNA 1: CAATCTGAATTCCGGTCTCCC
DNA 2: TGGTGGCTACGACGGGATT
B29: GGAGGGU (DNA:RNA)
RNA: B7 RNA with G27A, U28G, A29G, C30G, G31U
DNA 1: CAATCTGAATTCCGGTCTCCC
DNA 2: TGGTGGCTACGACGGGATT
B30: GCGCUCC (DNA:RNA)
RNA: B7 RNA with G26C, U28C, A29U, G31C
DNA 1: CAATCTGAATTCCGGTCTCCC
DNA 2: TGGTGGCTACGACGGGATT
B31: UUAAACC (DNA:RNA)
RNA: B1 RNA with A25U, U27A, U29A, U30C, A31C
DNA 1: CAATCTGAATTCCGGTCTCCC
DNA 2: TGGTGGCTACGACGGGATT

The target in this assay is T1, RBFOX1 RRM RbFoxmut (Fox-RRM*). Description: EMSA; HiTS-Eq, 1 nM pool, 10 min; buffer printed only for the single-RNA assays: 10 mM Tris pH 7.5, 150 mM NaCl, 3.4 mM EDTA, 0.001% NP-40, 30 C. Conditions: tags: His6 N-terminal (pET28a); label: 5' 32P. The procedure, abridged:
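A pool of RNA with 7 randomized nucleotides, 5′-radiolabelled and with DNA-annealed flanks, was equilibrated at 1 nM for 10 min in 50 µL with purified RbFox RRM, wild type or mutant, across increasing protein concentrations. Free RNA was separated by 8% native PAGE, excised, reverse-transcribed, barcoded by PCR and sequenced. Relative association constants were obtained from read-count changes of each RNA species versus the control reaction and normalised to the cognate motif.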
As for B1, the binding signal was 0.154 KA relative to UGCAUGU.

As for B2, the binding signal is 0.159 KA relative to UGCAUGU.

For B3, the binding signal is 0.0793 KA relative to UGCAUGU.

Regarding B4, the binding signal was 0.0907 KA relative to UGCAUGU.

B5: the binding signal is 0.0979 KA relative to UGCAUGU.

With B6, the binding signal is 0.103 KA relative to UGCAUGU.

In the case of B7, the binding signal is 0.347 KA relative to UGCAUGU.

In the case of B8, the binding signal was 0.089 KA relative to UGCAUGU.

Regarding B9, the binding signal is 0.167 KA relative to UGCAUGU.

B10: the binding signal was 0.13 KA relative to UGCAUGU.

In the case of B11, the binding signal was 0.051 KA relative to UGCAUGU.

As to B12, the binding signal is 0.0997 KA relative to UGCAUGU.

As for B13, the binding signal was 0.458 KA relative to UGCAUGU.

As for B14, the binding signal was 0.134 KA relative to UGCAUGU.

With B15, the binding signal is 0.0736 KA relative to UGCAUGU.

B16: the binding signal was 0.139 KA relative to UGCAUGU.

Regarding B17, the binding signal was 0.115 KA relative to UGCAUGU.

As for B18, the binding signal was 0.193 KA relative to UGCAUGU.

On to B19, for which the binding signal was 0.0757 KA relative to UGCAUGU.

Regarding B20, the binding signal is 0.0689 KA relative to UGCAUGU.

As for B21, the binding signal was 0.0777 KA relative to UGCAUGU.

B22: the binding signal was 0.117 KA relative to UGCAUGU.

As for B23, the binding signal was 0.118 KA relative to UGCAUGU.

Take B24: the binding signal is 0.136 KA relative to UGCAUGU.

Regarding B25, the binding signal is 0.0927 KA relative to UGCAUGU.

Consider B26, for which the binding signal is 0.106 KA relative to UGCAUGU.

B27: the binding signal was 0.089 KA relative to UGCAUGU.

Turning to B28, the binding signal is 0.088 KA relative to UGCAUGU.

As for B29, the binding signal is 0.0845 KA relative to UGCAUGU.

For the molecule B30, the binding signal was 0.046 KA relative to UGCAUGU.

Take B31: the binding signal is 0.0615 KA relative to UGCAUGU.
